This is one part of the list.
Target: T1, MBP-FoxP1dN (Mus musculus, UniProt P58462 326-579)
T1 sequence: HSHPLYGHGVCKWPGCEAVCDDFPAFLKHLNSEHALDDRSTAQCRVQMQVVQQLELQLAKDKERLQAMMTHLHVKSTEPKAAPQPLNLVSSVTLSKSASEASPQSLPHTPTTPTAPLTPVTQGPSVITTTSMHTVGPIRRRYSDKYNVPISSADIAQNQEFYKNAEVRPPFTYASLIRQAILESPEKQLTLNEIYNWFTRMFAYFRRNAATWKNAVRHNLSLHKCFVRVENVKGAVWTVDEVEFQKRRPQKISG
Test: PD-seq (MBP pull-down with sequencing); 20 mM Tris-HCl pH 7.5, 100 mM NaCl, 1.5 mM MgCl2, 0.4 uM protein, 0.1 uM dsDNA library, 30 min, room temperature, amylose pull-down; high values mean tight binding
Settings: protein: recombinant; tags: His6-MBP; chain copies: 2; dsDNA, one strand shown
Summary of the method: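 Mouse FoxP3 or FoxP1 fragment lacking the N-terminus, His6-MBP-tagged and expressed in E. coli, was incubated at 0.4 µM with 0.1 µM Klenow-filled degenerate double-stranded DNA library for 30 min at room temperature in Tris pH 7.5 buffer with NaCl and MgCl2. Complexes captured on amylose resin were washed three times and their DNA sequenced on Illumina. Binding is reads-per-million enrichment of pull-down over input, replicates pooled.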

Row | Sequence | binding signal
1 | GATGATTGTTCTCCCAGCTGATGAATTTATGGCTTCGAGTAAACAAATTTTCCTAATCTTTCTGTTCAAGCGCCATCTAC | 1.12 RPM ratio (pull-down/input)
2 | GATGATTGTTCTCCCAGCTGATGAATTGTGCTTATCGAGTAAACAAATTTTCCTAATCTTTCTGTTCAAGCGCCATCTAC | 1.66 RPM ratio (pull-down/input)
3 | GATGATTGTTCTCCCAGCTGATGAATTGACTTATTCGAGTAAACAAATTTTCCTAATCTTTCTGTTCAAGCGCCATCTAC | 1.09 RPM ratio (pull-down/input)
4 | GATGATTGTTCTCCCAGCTGATGAATTTCGCGCCTCGAGTAAACAAATTTTCCTAATCTTTCTGTTCAAGCGCCATCTAC | 0.95 RPM ratio (pull-down/input)
5 | GATGATTGTTCTCCCAGCTGATGAATTAGAGGCATCGAGTAAACAAATTTTCCTAATCTTTCTGTTCAAGCGCCATCTAC | 1.15 RPM ratio (pull-down/input)
6 | GATGATTGTTCTCCCAGCTGATGAATTTCAGGCGTCGAGTAAACAAATTTTCCTAATCTTTCTGTTCAAGCGCCATCTAC | 0.868 RPM ratio (pull-down/input)
7 | GATGATTGTTCTCCCAGCTGATGAATTAAGGCCGTCGAGTAAACAAATTTTCCTAATCTTTCTGTTCAAGCGCCATCTAC | 0.833 RPM ratio (pull-down/input)
8 | GATGATTGTTCTCCCAGCTGATGAATTATGTTATTCGAGTAAACAAATTTTCCTAATCTTTCTGTTCAAGCGCCATCTAC | 2.18 RPM ratio (pull-down/input)
9 | GATGATTGTTCTCCCAGCTGATGAATTCTGTTCGTCGAGTAAACAAATTTTCCTAATCTTTCTGTTCAAGCGCCATCTAC | 0.88 RPM ratio (pull-down/input)
10 | GATGATTGTTCTCCCAGCTGATGAATTTGCTAATTCGAGTAAACAAATTTTCCTAATCTTTCTGTTCAAGCGCCATCTAC | 1.05 RPM ratio (pull-down/input)
11 | GATGATTGTTCTCCCAGCTGATGAATTGGACGCATCGAGTAAACAAATTTTCCTAATCTTTCTGTTCAAGCGCCATCTAC | 1.17 RPM ratio (pull-down/input)
12 | GATGATTGTTCTCCCAGCTGATGAATTTGCAGAATCGAGTAAACAAATTTTCCTAATCTTTCTGTTCAAGCGCCATCTAC | 1.02 RPM ratio (pull-down/input)
13 | GATGATTGTTCTCCCAGCTGATGAATTCGACCTGTCGAGTAAACAAATTTTCCTAATCTTTCTGTTCAAGCGCCATCTAC | 0.713 RPM ratio (pull-down/input)
14 | GATGATTGTTCTCCCAGCTGATGAATTGTCCGACTCGAGTAAACAAATTTTCCTAATCTTTCTGTTCAAGCGCCATCTAC | 0.891 RPM ratio (pull-down/input)
15 | GATGATTGTTCTCCCAGCTGATGAATTTAGGACATCGAGTAAACAAATTTTCCTAATCTTTCTGTTCAAGCGCCATCTAC | 1.1 RPM ratio (pull-down/input)
16 | GATGATTGTTCTCCCAGCTGATGAATTCTCTTCCTCGAGTAAACAAATTTTCCTAATCTTTCTGTTCAAGCGCCATCTAC | 0.79 RPM ratio (pull-down/input)
17 | GATGATTGTTCTCCCAGCTGATGAATTGCGTCTATCGAGTAAACAAATTTTCCTAATCTTTCTGTTCAAGCGCCATCTAC | 1.14 RPM ratio (pull-down/input)
18 | GATGATTGTTCTCCCAGCTGATGAATTTTGACCGTCGAGTAAACAAATTTTCCTAATCTTTCTGTTCAAGCGCCATCTAC | 0.879 RPM ratio (pull-down/input)
19 | GATGATTGTTCTCCCAGCTGATGAATTAAACGGCTCGAGTAAACAAATTTTCCTAATCTTTCTGTTCAAGCGCCATCTAC | 0.714 RPM ratio (pull-down/input)
20 | GATGATTGTTCTCCCAGCTGATGAATTATATAACTCGAGTAAACAAATTTTCCTAATCTTTCTGTTCAAGCGCCATCTAC | 1.05 RPM ratio (pull-down/input)

Row | Sequence | binding signal
21 | GATGATTGTTCTCCCAGCTGATGAATTATACGATTCGAGTAAACAAATTTTCCTAATCTTTCTGTTCAAGCGCCATCTAC | 0.976 RPM ratio (pull-down/input)
22 | GATGATTGTTCTCCCAGCTGATGAATTTCCTTGGTCGAGTAAACAAATTTTCCTAATCTTTCTGTTCAAGCGCCATCTAC | 0.824 RPM ratio (pull-down/input)
23 | GATGATTGTTCTCCCAGCTGATGAATTTATAAAATCGAGTAAACAAATTTTCCTAATCTTTCTGTTCAAGCGCCATCTAC | 1.33 RPM ratio (pull-down/input)
24 | GATGATTGTTCTCCCAGCTGATGAATTCCCGTGGTCGAGTAAACAAATTTTCCTAATCTTTCTGTTCAAGCGCCATCTAC | 0.811 RPM ratio (pull-down/input)
25 | GATGATTGTTCTCCCAGCTGATGAATTTATGAGTTCGAGTAAACAAATTTTCCTAATCTTTCTGTTCAAGCGCCATCTAC | 1.23 RPM ratio (pull-down/input)
26 | GATGATTGTTCTCCCAGCTGATGAATTGTTCCGCTCGAGTAAACAAATTTTCCTAATCTTTCTGTTCAAGCGCCATCTAC | 0.966 RPM ratio (pull-down/input)
27 | GATGATTGTTCTCCCAGCTGATGAATTATTCGATTCGAGTAAACAAATTTTCCTAATCTTTCTGTTCAAGCGCCATCTAC | 1.05 RPM ratio (pull-down/input)
28 | GATGATTGTTCTCCCAGCTGATGAATTGCGCCCGTCGAGTAAACAAATTTTCCTAATCTTTCTGTTCAAGCGCCATCTAC | 1.02 RPM ratio (pull-down/input)
29 | GATGATTGTTCTCCCAGCTGATGAATTCAACTCGTCGAGTAAACAAATTTTCCTAATCTTTCTGTTCAAGCGCCATCTAC | 0.869 RPM ratio (pull-down/input)
30 | GATGATTGTTCTCCCAGCTGATGAATTGCGAAAATCGAGTAAACAAATTTTCCTAATCTTTCTGTTCAAGCGCCATCTAC | 1.24 RPM ratio (pull-down/input)
31 | GATGATTGTTCTCCCAGCTGATGAATTTTTTAAATCGAGTAAACAAATTTTCCTAATCTTTCTGTTCAAGCGCCATCTAC | 1.07 RPM ratio (pull-down/input)
32 | GATGATTGTTCTCCCAGCTGATGAATTCCCATAGTCGAGTAAACAAATTTTCCTAATCTTTCTGTTCAAGCGCCATCTAC | 0.776 RPM ratio (pull-down/input)
33 | GATGATTGTTCTCCCAGCTGATGAATTGGACATATCGAGTAAACAAATTTTCCTAATCTTTCTGTTCAAGCGCCATCTAC | 0.979 RPM ratio (pull-down/input)
34 | GATGATTGTTCTCCCAGCTGATGAATTACCTTATTCGAGTAAACAAATTTTCCTAATCTTTCTGTTCAAGCGCCATCTAC | 1.03 RPM ratio (pull-down/input)
35 | GATGATTGTTCTCCCAGCTGATGAATTGGGATAGTCGAGTAAACAAATTTTCCTAATCTTTCTGTTCAAGCGCCATCTAC | 0.897 RPM ratio (pull-down/input)
36 | GATGATTGTTCTCCCAGCTGATGAATTTAGGTCTTCGAGTAAACAAATTTTCCTAATCTTTCTGTTCAAGCGCCATCTAC | 0.898 RPM ratio (pull-down/input)
37 | GATGATTGTTCTCCCAGCTGATGAATTCAATCACTCGAGTAAACAAATTTTCCTAATCTTTCTGTTCAAGCGCCATCTAC | 0.898 RPM ratio (pull-down/input)
38 | GATGATTGTTCTCCCAGCTGATGAATTCAAGCGGTCGAGTAAACAAATTTTCCTAATCTTTCTGTTCAAGCGCCATCTAC | 0.826 RPM ratio (pull-down/input)
39 | GATGATTGTTCTCCCAGCTGATGAATTTTCTGCTTCGAGTAAACAAATTTTCCTAATCTTTCTGTTCAAGCGCCATCTAC | 1 RPM ratio (pull-down/input)
40 | GATGATTGTTCTCCCAGCTGATGAATTAGGTCTATCGAGTAAACAAATTTTCCTAATCTTTCTGTTCAAGCGCCATCTAC | 0.838 RPM ratio (pull-down/input)
